{"source": "PubChem BioAssay AID1963576", "about": "(National Center for Advancing Translational Sciences (NCATS), 2024)", "note": "Hit rate of the full screen: of about 46,000 compounds, about 60 (0.1%) were called active. Another 3% or so got no clear call; they are omitted. Calls follow the shape of the dose curve; as a rule, active = well fitted inhibition curve with a large enough effect; inconclusive = small, poorly fitted or top-dose-only effect; inactive = no such curve, though single readings can be large or run the other way. This is one part of the list."}
{"assay": "Primary qHTS assay for Inhibitors of ovarian cancer metastasis using an organotypic tumor microenvironment (TME) model; also: nearly all actives have a fitted effect of over 65% in size;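 as to activity change, negative = inhibition: plate controls were DMSO wells for no effect and tomatine positive control wells for full effect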.", "conditions": "SKOV3ip1-GFP adhesion/invasion on 3D omental model, fluorescence; series mostly up to 45.8 µM; activity change, negative = inhibition: at the top concentration", "summary_of_the_method": "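A 3D layer of primary human omental fibroblasts, mesothelial cells, fibronectin and collagen I, grown 48 hr, received SKOV3ip1-GFP cells in serum-free medium plus compounds at 0.36-46 umol/L. After 2 hr RT and 16 hr 37 C, fixed adherent GFP cells were counted; normalized to DMSO and tomatine.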"}
{"smiles": "Cc1ccc(NC(=O)CSc2nnc3nc(C)cc(C)n23)cc1", "activity change, negative = inhibition": "inactive: -16.8%"}
{"smiles": "CC(C(=O)NCc1ccccc1Cl)n1ccc2cc(S(=O)(=O)N3CCCCC3)ccc21", "note": "(configuration not stated)", "activity change, negative = inhibition": "inactive: 2.06%"}
{"smiles": "CC(=O)c1ccc(N2CCN(c3ccc(NC(=O)c4cccs4)cc3C(=O)O)CC2)cc1", "activity change, negative = inhibition": "inactive: 1.01%"}
{"smiles": "O=C(CSc1nc(-c2cccc(Cl)c2)nc2cc(=O)[nH]n12)Nc1ccccc1", "activity change, negative = inhibition": "inactive: 6.59%"}
{"smiles": "CCN(CC)C(=O)c1sc(NC(=O)c2nc3ncccn3n2)c(C(=O)OC)c1C", "activity change, negative = inhibition": "inactive: -9.58%"}
{"smiles": "Cc1cccc(Cn2ccn(Cc3ccc(Cl)cc3)c(=O)c2=O)c1", "outcome": "inactive"}
{"smiles": "O=c1c2ccccc2n2c(-c3ccccc3O)nnc2n1Cc1ccc(F)cc1", "activity change, negative = inhibition": "inactive: 1.51%"}
{"smiles": "Cc1ccc(C)c(NC(=O)CN2C(=O)c3cccc4cccc2c34)c1", "activity change, negative = inhibition": "inactive: -17.3%"}
{"smiles": "CCOC(=O)c1ccccc1NC(=O)NC(C)c1c(-n2cccc2)sc(C)c1C", "note": "(configuration not stated)", "outcome": "inactive"}
{"smiles": "CCC(Sc1nc2c(sc3ccccc32)c(=O)n1CCc1ccccc1)C(=O)N(CC)CC", "note": "(configuration not stated)", "outcome": "inactive"}
{"smiles": "O=C(c1ccc2c(c1)N(Cc1ccccc1)C(=O)c1ccccc1S2(=O)=O)N1CCCC1", "outcome": "inactive"}
{"smiles": "O=C(c1ccccc1Br)N(Cc1ccco1)C1CCS(=O)(=O)C1", "note": "(configuration not stated)", "outcome": "inactive"}
{"smiles": "Nc1[nH]nc2nnc(-c3c(-c4ccccc4)nn4ccccc34)cc12", "activity change, negative = inhibition": "inactive: 15.7%"}
{"smiles": "CCCCCC(=O)N1c2ccccc2C(C)(c2ccccc2)CC1(C)C", "note": "(configuration not stated)", "activity change, negative = inhibition": "inactive: 0.563%"}
{"smiles": "COc1ccc(NC(=O)CN2C(=O)C(c3ccc(C(C)(C)C)cc3)=NC2(C)C)cc1Cl", "activity change, negative = inhibition": "inactive: -6.39%"}
{"smiles": "Cc1ccc(C)c(N2CCN(C(=O)Nc3cn(CC(C)C)c(=O)c4ccccc34)CC2)c1", "activity change, negative = inhibition": "inactive: 20.9%"}
{"smiles": "COc1ccc(Cn2c(C(=O)O)c(CNCC(C)c3ccccc3)c3ccc(OC)cc32)cc1", "note": "(configuration not stated)", "activity change, negative = inhibition": "inactive: -9.19%"}
{"smiles": "COc1cccc(CCNC(=O)Cn2c(-c3cccs3)cc3ccccc32)c1", "activity change, negative = inhibition": "inactive: -24.6%"}
{"smiles": "CC(C)NC(=O)CCn1c(SCc2c(F)cccc2Cl)nc2c(sc3ccccc32)c1=O", "activity change, negative = inhibition": "inactive: 7.78%"}
{"smiles": "Cc1cc(C)cc(-n2c(SCC(=O)NCc3ccco3)nc3c([nH]c4ccccc43)c2=O)c1", "activity change, negative = inhibition": "inactive: -6.21%"}
{"smiles": "CCOC(=O)N1CCN(Cc2nc3cc(NC(C)=O)ccc3n2C(C)C)CC1", "activity change, negative = inhibition": "inactive: -31.4%"}
{"smiles": "CCCCn1c(SCC(=O)Nc2cccc(OC)c2)nc2c(sc3ccccc32)c1=O", "activity change, negative = inhibition": "inactive: -0.582%"}
{"smiles": "COc1ccccc1N1CCN(C(=O)C2CCN(S(=O)(=O)c3c(C)noc3/C=C/c3ccc(C)cc3)CC2)CC1", "activity change, negative = inhibition": "inactive: 4.9%"}
{"smiles": "Cc1cccc(Cc2cnc(NC(=O)C3Cc4ccc(C)cc4C(=O)O3)s2)c1", "note": "(configuration not stated)", "outcome": "inactive"}
{"smiles": "Cc1cc(-n2c(SCC(=O)NCc3ccccc3)nc3ccsc3c2=O)ccc1Cl", "activity change, negative = inhibition": "inactive: 2.97%"}
{"smiles": "Cc1nnc2c(N3CCN(c4ccccc4F)CC3)nc3ccccc3n12", "activity change, negative = inhibition": "inactive: -14.5%"}
{"smiles": "COc1ccc(NC(=O)NCCc2c(C)nn(C)c2C)c(OC)c1", "activity change, negative = inhibition": "inactive: -0.971%"}
{"smiles": "COc1cccc(NC(=O)CSc2nnc(COc3ccc(Cl)cc3)o2)c1", "activity change, negative = inhibition": "inactive: 29%"}
{"smiles": "O=C(CCC1CCCC1)N1CCc2c([nH]c3ccccc23)C1c1ccc(Cl)cc1", "note": "(configuration not stated)", "activity change, negative = inhibition": "inactive: -11.8%"}
{"smiles": "CCOc1ccc(OCC(=O)NCCS(=O)(=O)N2CCN(c3ccc(F)cc3)CC2)cc1", "activity change, negative = inhibition": "inactive: 1.92%"}
{"smiles": "Cc1ccc(-n2nc3ccc(NC(=O)c4oc5ccc(C)cc5c4C)cc3n2)cc1", "activity change, negative = inhibition": "inactive: 0.927%"}
{"smiles": "Cc1ccc(-n2nnc(-c3nsc(NC(=O)c4ccccc4)n3)c2C)cc1", "activity change, negative = inhibition": "inactive: -20.4%"}
{"smiles": "CCc1cccc(C)c1NS(=O)(=O)c1cc(-c2cc(C)no2)ccc1C", "outcome": "inactive"}
{"smiles": "Cc1cc(C(F)F)n2nc(C(=O)Nc3cc(Cl)ccc3C)nc2n1", "activity change, negative = inhibition": "inactive: -7.42%"}
{"smiles": "CC1CCc2noc(NC(=O)c3ccccc3[N+](=O)[O-])c2C1", "note": "(configuration not stated)", "activity change, negative = inhibition": "inactive: -4.33%"}
{"smiles": "CCOC(=O)C1CCCN(S(=O)(=O)c2ccc(N3CCCCS3(=O)=O)cc2)C1", "note": "(configuration not stated)", "activity change, negative = inhibition": "inactive: 2.7%"}
{"smiles": "CCN(C(=O)Cn1ncc2c(=O)oc3ccc(C)cc3c21)c1cc(OC)ccc1OC", "activity change, negative = inhibition": "inactive: 6.4%"}
{"smiles": "O=C(Nc1ccccc1F)c1nc(SCc2ccc(F)cc2)ncc1Cl", "outcome": "inactive"}
{"smiles": "CCCOc1ccccc1C(=O)N1CCCCC1CCN1CCOCC1", "note": "(configuration not stated)", "activity change, negative = inhibition": "inactive: -6.54%"}
{"smiles": "O=C(Nc1ccc2nc(SCCOc3ccccc3)sc2c1)c1cccs1", "activity change, negative = inhibition": "inactive: 0.205%"}
{"smiles": "COc1ccccc1CNC(=O)C1CCN(S(=O)(=O)c2c(C)noc2/C=C/c2c(C)cc(C)cc2C)CC1", "activity change, negative = inhibition": "inactive: 6.34%"}
{"smiles": "CN1CCN(C(=O)c2ccc3c(c2)N(Cc2cccc(Cl)c2)C(=O)c2ccccc2S3(=O)=O)CC1", "activity change, negative = inhibition": "inactive: -4.22%"}
{"smiles": "CCCN1C(=O)C(O)(CC(=O)c2ccc(OC)c(OC)c2)c2ccccc21", "note": "(configuration not stated)", "activity change, negative = inhibition": "inactive: -2.6%"}
{"smiles": "Cc1c(Cl)cccc1NC(=O)CN1C(=O)COc2ccc(S(=O)(=O)N3CCCCCC3)cc21", "activity change, negative = inhibition": "inactive: 0.148%"}
{"smiles": "Cc1coc2c(C)c3oc(=O)c(CC(=O)NCc4ccccc4)c(C)c3cc12", "activity change, negative = inhibition": "inactive: -5.78%"}
{"smiles": "CCOc1ccccc1NC(=O)c1sc2nc(C)cc(C)c2c1N", "activity change, negative = inhibition": "inactive: 9.15%"}
{"smiles": "COc1cccc(CNC(=O)CSc2ncc3c(n2)-c2cc(Cl)ccc2N(C)S3(=O)=O)c1", "activity change, negative = inhibition": "inactive: -1.64%"}
{"smiles": "CCc1ccc(NC(=O)c2ccc(F)c(S(=O)(=O)NC3CCCCCC3)c2)cc1", "outcome": "inactive"}
{"smiles": "COc1cc(O)c2c(c1)C(=O)c1cc(C)cc(O)c1C2=O", "activity change, negative = inhibition": "inactive: -13.9% [at 23.2 µM]"}
{"smiles": "CCOC(=O)c1cnc2c(C)cc(C)cc2c1NCCc1ccc(OC)c(OC)c1", "activity change, negative = inhibition": "inactive: -6.49%"}
{"smiles": "COc1ccc(CNC(=O)Cn2c(=O)oc3cc(S(=O)(=O)N4CCC(C)CC4)ccc32)cc1", "activity change, negative = inhibition": "inactive: -0.94%"}
{"smiles": "Cc1ccc(Cl)cc1-n1c(=O)c2sc3ccccc3c2n(CC(=O)NC2CCCCC2)c1=O", "activity change, negative = inhibition": "inactive: 34.2%"}
{"smiles": "Cc1cccc(C)c1NC(=O)c1nc(S(C)(=O)=O)ncc1N(Cc1ccc(F)cc1)Cc1ccco1", "activity change, negative = inhibition": "inactive: 13.7%"}
{"smiles": "COc1cccc(CNC(=O)CN2C(=O)CSc3c2c(C)nn3-c2ccccc2)c1OC", "outcome": "inactive"}
{"smiles": "Cc1ccc(C)n1-c1c(C(=O)NCC(C)c2ccccc2)sc2ncccc12", "note": "(configuration not stated)", "activity change, negative = inhibition": "inactive: -5.71%"}
{"smiles": "O=c1c2sc3ccccc3c2n(Cc2ccccc2Cl)c(=O)n1Cc1ccccc1", "activity change, negative = inhibition": "inactive: 8.13%"}
{"smiles": "Cc1cc(-c2ccc(C)c(S(=O)(=O)Nc3ccccc3C(F)(F)F)c2)on1", "outcome": "inactive"}
{"smiles": "COc1ccc(C(=O)N(Cc2ccc(N(C)C)cc2)Cc2ccco2)cc1Cl", "outcome": "inactive"}
{"smiles": "CCc1ccccc1NC(=O)Cn1c(=O)n(CCCS(=O)(=O)C2CCCCC2)c(=O)c2ccccc21", "activity change, negative = inhibition": "inactive: -1.85%"}
{"smiles": "O=C(Cn1c(=O)c2ccccc2n(CC(=O)Nc2ccc(Cl)cc2)c1=O)NCCc1ccccc1", "activity change, negative = inhibition": "inactive: -12.7%"}
{"smiles": "Cc1c(CCNC(=O)Cc2ccc(F)cc2)sc2nc(-c3ccc(F)cc3)nn12", "outcome": "inactive"}
{"smiles": "CCCCN(C)CCNC(=O)C1CCCN(S(=O)(=O)c2ccc3c(c2)oc(=O)n3C)C1", "note": "(configuration not stated)", "outcome": "inactive"}
